# Experimental data from ChEMBL document CHEMBL4888484, “Replenishing the malaria drug discovery pipeline: Screening and hit evaluation of the MMV Hit Generation Library 1 (HGL1) against asexual blood stage Plasmodium falciparum ,using a nano luciferase reporter read-out” (2022).
# Among all 150,000 compounds or so, about 540 (0.36%) showed an effect of 50% or more. Some of the results follow.
# System: Plasmodium falciparum
# Experiment: Primary screen in NF54 nanoGlo assay, in single point, at 2uM, 72h; a lower Z score goes with more inhibition
# Assay type: functional, Erythrocyte
# Conditions: timepoint 72 hour
SMILES,% Inhibition [%],Z score
Cn1cc(-c2ccccc2CNC(=O)C2(N3CCOCC3)CCC2)cn1,1,-0.15
CC1(NC(=O)OC(C)(C)C)CCC(N[C@H]2CCc3nccn3C2)CC1 (stereo partly specified),-1,0.21
O=C(NCC1COCCO1)N1CCCC1c1ccncc1 (stereo unspecified),10,-1.3
Cc1nc(C(=O)Nc2ccccc2N(C)C(C)C)c(C)o1,-42,4.92
O=C(NCCN1CCCC[C@@H]1CO)c1ccc(-c2cc(F)ccc2O)cc1,6,-0.81
Cc1nc(N)nc(-c2cccc(C(=O)NCC(=O)N(C)C)c2)c1Cl,-9,1.82
COc1cc(-c2n[nH]cc2CN(C[C@H]2CCC(=O)N2)C(C)C)cc(OC)c1OC,-18,1.93
Cc1cncn1CC(=O)N1CCCS(=O)(=O)C[C@H]1c1ccccc1,-2,0.3
CN(Cc1noc(C2CCCC2)n1)C(=O)Cc1n[nH]c(=O)[nH]1,-9,1.61
O=C(NCc1ccno1)c1cccc(Br)c1Cl,-8,1.12
CCCOCCCNC(=O)c1c(C)noc1-c1cccnc1,-10,1.05
O=C(NC1CCCC1)C1CCN(c2cncnc2N2CCOCC2)CC1,-1,0.26
CNC(=O)[C@@H]1C[C@H](Oc2ccccc2)CN1C1CCN(C(=O)CCn2cc(C)cn2)CC1,-4,0.51
CC(C)[C@@H]1NC(=O)N(CC(=O)N2CCCCC2)C1=O,-8,0.86
O=c1[nH]c(N2CCOCC2)nc2nccc(-c3ccc(-c4ccccc4)cc3)c12,-13,1.82
O=C(NCc1cccc(COc2ccccc2)c1)C1CCCCC1,-11,2.08
Cc1c(Cl)cccc1S(=O)(=O)N1CC(Oc2cccnc2)C1,-1,0.21
Cc1cccc(CN2C(=O)OC(c3ccc(NC(=O)C(C)C)cc3)C2C(=O)Nc2ccccc2)c1 (stereo unspecified),-11,1.15
OCc1cccc(NCc2ccc3cn[nH]c3c2)c1,-1,0.07
O=C(c1coc(COc2ccc(F)cc2Cl)n1)N1CCCC1,-28,2.48
CCC1=NO[C@@H](CNC(=O)c2cccc(-c3n[nH]c4cccc(C)c34)c2)C1,-7,0.97
N[C@@H]1C[C@@H]2CC(c3nc(C4(c5ccccc5)CCC4)no3)C[C@@H]21 (stereo partly specified),-1,0.1
COc1ccc(CCC(=O)N2CC(c3nc(-c4cccc(Cl)c4)no3)C2)cc1,-6,1.21
Cc1ccccc1CNC(=O)[C@H]1CCCN(C2CCN(Cc3ccncc3)CC2)C1,12,-1.56
Cc1cc2nn(CC(=O)Nc3ccc(F)c(F)c3)c(=O)n2c(Nc2ccccc2)n1,10,-1.83
Cc1nn(C)c(C)c1C(=O)N1CCCC[C@H]1c1cnn(C)c1,-17,2.66
COC[C@@]12CCN(C(=O)Nc3cccc(C(F)(F)F)c3)C[C@@H]1CN(S(C)(=O)=O)C2,-1,0.07

SMILES,% Inhibition [%],Z score
Cc1nc(COc2nc(C(C)(C)C)no2)cs1,41,-5.98
Cc1ccc(-n2ncc3c2CC(C)(C)C[C@@H]3NCc2ccc(CO)o2)cc1,-18,1.71
Cc1csc([C@H](C)Nc2ccc3nnc(C)n3n2)n1,-6,0.8
CC(C)CN1C(=O)CC[C@@H]2CN(C(=O)c3onc4c3CCCC4)CC[C@@H]21,-5,0.66
CCNC(=O)[C@@H]1C[C@@H](NC(=O)c2csc(C)n2)CN1C(=O)c1ccoc1,-5,0.65
COc1ccc(CN2C(=O)N[C@@](C)(c3cnn(C)c3)C2=O)c(Cl)c1,-5,0.97
Cn1nc(C2CCOCC2)cc1C(=O)NC[C@H]1CCC(C)(C)O1,-1,0.17
O=C(CCn1cnccc1=O)N[C@H]1CCCc2c(F)cc(Cl)cc21,3,-0.44
CCCN(C[C@H]1CCCCO1)C(=O)c1nccnc1N,4,-0.76
CCN1C(=O)CO[C@H](c2nc(-c3ccnc4[nH]ccc34)no2)[C@H]1c1cnn(C)c1,6,-0.98
Cc1cnn(CC2CCN(Cc3cc4n(n3)CCNC4)CC2)c1,-6,1.19
Cc1cc(CN2CCc3c(c(CCC(=O)N4CCOCC4)nn3C)C2)n(C)n1,-10,1.4
O=C(NCCCc1ccccc1)C1CCN(c2ccc3nncn3n2)CC1,-14,2.18
COc1ccc2oc(C(=O)N3CC[C@H](Oc4ccc(Br)cn4)C3)cc2c1,-13,2.4
CC(=O)NCCc1nc(Cc2ccccc2)cs1,3,-0.4
O=C([C@@H]1CCCc2cccnc21)N1CCC(O)(Cc2ccc(F)cc2)CC1,-17,1.67
CC(C)[C@H](CNc1nc2ccccc2o1)N1CCN(C)CC1,10,-1.26
CCN1Cc2nc(OC)c(CNC(=O)c3cc(CC(C)C)[nH]c(=O)n3)cc2C1=O,-7,0.89
CC(=O)c1ccc(Cl)c(S(=O)(=O)Nc2nnc3ccccn23)c1,-9,1.21
CCn1ccc(C(=O)N2CC[C@@]3(CCCN(CC4CC4)C3=O)C2)cc1=O,-11,1.68
CC(=O)c1nn(C)cc1OCCC1CCC1,2,-0.26
CC(C)C(CNCc1nnn(C)n1)C(C)C,35,-5
CC(Cn1ncc2ccccc2c1=O)NC(=O)[C@H]1C[C@@H]1c1ccncc1 (stereo partly specified),8,-1.02
CCN1C[C@H](CN(C)C(C)=O)Oc2ccccc21,-36,4.25
O=C(Nc1scnc1C1CC1)NC1CCN(CC2CC2)CC1,-1,0.15
COC(=O)c1[nH]c(C)c(CN(C)C(=O)c2ccc(Cl)cc2)c1C,-9,1.31
